Data published in the RNAGym collection of RNA variant scans (doi:10.7554/elife.90254).
Read counts are not given, so values of variants with three or more changes are uncertain.

B1: OR4K15 (parent)
chain: GUUAACGGUCAUAGGCCAUGGAAACUAGGAGCACCAUUUCGCUGCCAGUGAAGAAAUGAACAAAGAAAAUCUGGGCCAGGCAGGCAUCAAAAGAAAUAGUCUUGCGCUCAACCAGAAAGUCUGUAAUCAUUUUAAGGGUA

Variants of: B1
Assay: self-cleavage, relative activity (ratio to wild type); higher = more cleavage; in vitro, sequencing; the parent is a self-cleaving ribozyme

| Variant | self-cleavage |
| --- | --- |
| GUUAACGGACAUAGGCCAUGGAAACUAGGAGCACCAUUUCGCUGCCAGUGAAGAAAUGAACGAAGAAAAUCUGUGCCAGGCAGGCAUCAAAAGAAAUAGUCUUGCGCUCAACCAGAAAGUCUGUAAUCAUUUUAAGGGUA | 0.06 |
| GUUAACGGUCUUAGGCCAUGGAGCCUAGGAGCACCAUUUCGCUGCCAGUGAAGAAAUGAACAAAGAAAAUCUGGGCCAGGCAGGCAUCAAAAGAAAUAGUCUUGCGCUCAACCAGAAAGUCUGUAAUCAUUUUAAGGGUA | 1.15 |
| GUUAACGGUCCUAGGCCAUGGAAACUAGGAGCACCAUUUCGCUGCCGGUGAAGAAAUGAACAAAGAAAAUCAGGGCCAGGCAGGCAUCAAAAGAAAUAGUCUUGCGCUCAUCCAGAAAGUCUGUAAUCAUUUUAAGGGUA | 0.01 |
| GUGGACGGUCAUAGGCCAUGGAAACUGGGAGCACCAUUUCGCUGCCAGUGAAGAAAUGAACAAAGAAAAUCUGGGCCAGGCAGGCAUCAAAAGAAAUAGUCUUGCGCUCAACCAGAAAGUCUGUAAUCAUUUUAAGGGUA | 0.54 |
| GUUAACGGUCAUAGGCCAUGGAAACUAGGAGCACCAUUUCGCUGCCAGUGAAGAAAUGAACAAAGAAAAUCUGGGCCAGGCAGGCAUCAAAAGAAAUAGUCUUGCGCUCAACCAGGAGGUCCGUAAUCAUUUUAAGGGUA | 0.36 |
| GUUAGCGGUCAUAGGCCAUGGAAACUAGGAGCACCAUUUCGCUGCCAGUGAAGAAAUGAACAAAGAAAAUCUGGGUCAGGCAGGCAUCAAAAGAAAUAGUCUUGCGCCCAACCAGAAAGUCUGUAAUCAUUUUAAGGGUA | 0.08 |
| GUUAACGGUCAUAGGCCAUGGAGACUAGGAGCACCAUUUCGCUGCCAGUGAAGAGAUGAACAAAGAAAAUCUGGGCCAGGCAGGCAUCAAAAGAAAUAGUCUUGCGCUCGACCAGAAAGUCUGUAAUCAUUUUAAGGGUA | 0.07 |
| GUUAACGGUCAUAGGCCAUGGAAACUAGGAGCACCAUUCCGCUGCCAGUGAAGAAAUGAACAAAGAAAACCUGGGCCAGGCAGGCAUCAAAAGAAAUAGUCUUGCGCUCAACCAGAAAGUCUGUAAUCAUUUUGAGGGUA | 0.49 |
| GUUGACGGUCAUAGGCCAUGGAAACUAGGAGCACCAUUUCGCUGCCAGUGAAGAAAUGAACAAAGAAAAUCUGGGCCAGGCAGGCAUCAAAAGGAAUAGUCUUGCGCUCAACCGGAAAGUCUGUAAUCAUUUUAAGGGUA | 1.21 |
| GUUAACGGUCAUAGGCCAUGGAAACUAGGAGCACCAUUUCGCUGCCAGUGAAGAAAUGAACAAAGAAAAUCUGGGCCGGGCAGGCAUCAAAAGAAAUAGUCUUGCGCUCAACAAGAAAGUCUGUAACCAUUUUAAGGGUA | 0 |
| GUUAACGGUCAUAGGCCAUGGAAACUAGGGGCACCAUUUCGCUGCCAGUGAAGAGAUGAACAAAGAAAAUCUGGGCCAGGCAGGCAUCAAAAGAAAUAGUCUUGCGCUCAACCAGAAAGUCCGUAAUCAUUUUAAGGGUA | 0.88 |
| GUUACCGGUCAUAGGCCAUGGAAACUAGAAGCACCAUUUCGCAGCCAGUGAAGAAAUGAACAAUGAAAAUCUGGGCCAGGCAGGCAUCAAAAGAAAUAGUCUUGCGCUCAACCAGAAGGUCUGUAACCAUUCUAAGGGUG | 0.28 |
| GUUAACGGCCAUAGGCCAUGGAAACUAGGAGCACCAUUUCGCUGCCAGUGAAGAAAUGAACAAAGAAGAUCUGGGCCUGGCAGGCAUCAAAAGAGAUAGUCUUGCGCUCAACCAGAAAGUCUGUAAUCAUUCUAAGGGUA | 0.74 |
| GUUAUCGGUCAUAGGCCACGGAAACGAGGAGCACCAUUUCGCUGCCAGUGAAGAGAUGAACAAAGAAAAUCUGGGCCAGGCCGGCAUCAAAAGAAAUAGUCUCGCGCUCAGCCGGAAAGUCUGUAAUCAUUUUAAGGGUA | 0.07 |
| GUUAACGGUCAUAGGCCAUGGAAACUAGGGGCACCAUUUCGCUGCCAGUGAAGAAAUGAACAAAGAGAAUCUGGGCCAGGCAGGUACCAAAAGAAAUAGUCUUGCGCUCAACCAGAAAGUCUGUAAUCAUUUUAAGGGUA | 0.87 |
| GUUAACGGUCAAAGGCCAUGGAAACUAGGAGCACCAUUUCGCUGCUAGUGAAGAAAUGAACAAAGAAAAUCUGGGCCAGGCAGGCAUCAAGAGAAAUAGUCUUGCGCUCAACCAGAAAGUCUGUAAUCAUUUUAAGGGUA | 0.37 |
| GUUAACGGCCAUAGGCCAUGGAAACUAGGAGCACCAUUUCGCUGCCAGUGAAGAAAUGAACGAAGAAAAUCUGGGCCAGGCAGGCAUCAAAAGAAAUAGACUUGCGCUCAGCCAGAAAGUCUGUAAUCAUUUUAAGGGUA | 0.04 |
| GUUAACGGUCAUAGGCCAUGGAAACUAGGAGCACCAUUUCGCUGCCAGUGAAGAACUGAACAAAGAAAAUCUGGGCCAGGCAGGCAUCAAAAGAAAUAGUCUUGCGCACAACCAGAAAGUCUGUAAUCAUCUUAAGGGUA | 0.02 |
| GUUAACGGUCAUAGGCCAUGGGAACUAGGAGCACCAUUUCGCUGCCAGUGAAGAAAUGAACAAAGAAAAUCUGGGCCAGGCAGGCAUCAAAAGAAAUAGUCUUGCGCUCAACCAGGAAGUCUGUAGUCAUUCUAAGGGUA | 1.24 |
| GUUAACGGUCAUAGGCCAUGGAUACUAGGAGCACCAUUUCGCUGCCAGUGAAGAAAUGAACAAAGAAAAUCUGGGCCGGGCAGGCAUCAAAAGAAAUAGUCUUGCGCUCAGCCAGAAAGCCUGUAAUCAUUUUAAGGGUA | 0.02 |
| GUUAACGGUCAUAGGCCAUGGAAACUAGGAGCACCAUUUCGCUGCCUGUGAAGAAAUGAACAAAGAAAAUCUGGGCCAGGCAAGCUUCAAAAGAAAUAGUCUUGCGCUCAACCAGAAAGUCUGUAAUCAUUUUAAGUGUU | 1.88 |

| Variant | self-cleavage |
| --- | --- |
| GUUAGCGGUCAUAGGCCAUGGAAACUAGGAGCACCAUUUCGCCGCCAGUGAAGAAAUGAACAAGGAAAAUCUGGGCCAGGCAGGCAUCAAAAGAAAUAGUCUUGCGCUCAAACAGAAAGUCUGUAAUCAUUUUAAGGGUA | 0.05 |
| GUUAACGGUCAUAGGCCAUGGAAACUAGGAGCACCAUUUCGCUGCCAGUGAAGAAGUGAACAAAGAGGAUCUGGGCCAGGCAGGCAUCAAAAGAAAUAGUCUUGCGCUCAACCAGAAAGUCUGCAAUCAUUUUAAGGGAA | 1.16 |
| GUUAACGGUCAUGGGCCAUGGAAACCAGGAGCACCAUUUCGCUGCCAGUGAAGAAAUGAACGAAGAAAAUCUGGGCCAGGCAGGCAUCAAAAGAAGUAGUCUUGCGCUCAACCAGAAAGUCUGUAAUCAUUUUAAGGGUA | 1.18 |
| GUUAACGGUCAUAGGCCAUGGAAGCUAGGAGCACCAUUUCGCUGCCAGUGAAGAAAUGAACAAAGAAAAUCAGGGCCAGGCAGGCAUCAAAAGACAUAGUCUUGCGCUCAACCAGAAAGUCUGUAAUCAUUUUAAGGGUA | 0.1 |
| GUUAACGGCCAUAGGCCAUGGAAACUAGGAGCACCAUUUCGCUGCCGGUGAAGAAAUGAACAAAGAAAAUCUGGGCCAGGCAGGCAUCAAAAGAAAUAGUCUUGCGCUCUCCCAGAAAGUCUGUAAUCUUUUUAGGGGUA | 0.02 |
| GUUAACGGUCAUAGGCCAUGGAAACUAGGAGCACCAUUUCGCUGCCAGUGAAGAAAUGAACAAAGUAAAUCUAGGCCAGGCAGGCAUCAAAAGAAAUAGUCUUGCGCUCAACCAGAAAGUCUGUAAUCAUUCUAAGGGUA | 0.18 |
| GUUAACGGUCAUAGGCCAUGGAAACUAGGAGCACCGUUUCGCUGCCAGUGAAGAAAUGAACAAAGAAAAUCUGGGCCAGGCAGGCAUCAAAAGAAAUAGUCUUGCGUUCAACCGGAAAGUCUGUAAUCGUUUUAAGGGUA | 0 |
| GUUAACGGUUAUAGGCCAUGGAAACUAGGAGCACCAUUUCGCUGCCAGUGGAGAAAUGAACAAAGCAGAACUGGGCCAGGCAGGCAUCAAAAGAAAUAGUCUUGCGCUCAACCAGAAAGUCUGUAAUCAUUUCAAGGGUA | 0.5 |
| GUUAACGGUCAUAGGCCAUGGAAACUAGGAGCACCAUUUCGCUGCCAGUGGAGGAAUGAACAAAGAAAAUCUGGACCAGGCAGGCAUCAAAAGAAAUAGUCUUGCGCUCAACCAGAAAGUCUGUAAUCAUUUUAAGGGUA | 0.16 |
| GUUAACGGUCAUAGGCCAUGAAAACUAGGAGCACCAUUUCGCUGCCAGGGAAGAAAUGAACAAAGAAAAUCUGGGCCAGGCAGGCAGCAAAAGAAAUAGUCUUGCGCUCAACCAGAAAGUCUGUACUCAUUUUAAGGGUA | 0.08 |
| GUUAACGGUCAUAGGCCAUGGAAACUAGGAGCACCAUCUCGCUGCCAGUGAAGAGAUGAACAAAGAAAAUCUGGGCCAGGCAGGCAUCAAAAGAAAUAGUCUUGCGCUCAACCAGAAAGUCCGUAAUCAUUUUAAGGGUA | 0.99 |
| GUUAACGGUCUUAGGCCAUGGAAACUAGGAGCACCAUUCCGCUGCCAGUGAAGAAAUGAACAAAGAAAAUCUGGGCCAGGCAGGCAUCAGAGGAGAUAGUCUUGCGCUCAACCAGAAAGUCUGUAAGCAUUUUAAGGGUA | 1.84 |
| GUUAACGGUCAUAGGCCAUGGAAACUAGGAGCACCAUUCCGCUGCCAGUGAAGAAAUGAACAAAGAAAAUCUGGGCCUGGCAGGCAUCAAAAGAAAUAGCCUUGCGCUCAACCAGAAAGUCUGUAAUCAUUUUAAGGGUA | 0.81 |
| GUUAACGGUCAUAGGCCAUGGAAUCUAGGAGCACCAUUUCGCUGCCAGUGAAGAAAUGAACAAAGAGAAUCUGGGCCAGGCAGGCAUCAAAAGAAAUAGUCUUACGCUCAACCAGAAAGUCUGUAAUCAGUUUAAGGGUA | 0.02 |
| GUUAACUGUCAUAGGCCAUGGAAGCUAGGAGCACCAUUUCGCUGCCAGUGAAGAAAUGAACAAAGAAAAUCUGGGCCAGGCAGGCAUCAGAAGAAAUAGUCUUGCGCUCAACCAGAAAGUCUGUGAUCAUUUUAAGGGUA | 0.25 |
| GUUAACGGUCAUAGGCCAUGGAAACAAGGAGCACCAUUUCGCUGCCAGUGAAGAAAUGAACAAAGAAAAUCUGGGCCAGGCAUGCAUCAAAAGAGAUAGUCUUGCGCUCAACCAGAAAGUCUGUAAUCAUUUUAAGGGUA | 0.25 |
| GUUAACGGUCAUAGGCCAUGGAAACUAGGAGCACCAUUUCGCUGCCAGUGAAGAAAUGAACAAAGAAAAUCUGGGCCAGGCCGGCAUCAAAAGAAAUAGUCUUGCGCUCGACCAGAAAGUCUGUAAUCACUUUAAGGGUA | 0.01 |
| GCUAGCGGUCAUAGGCCAUGGAGCCUAGGAGCACCAUUUCGCUGCCAGUGAAGAAAUGAACAAAGAAAAUCUGGGCCAGGCAGGCAUCAAAAGAAAUAGUCUUGCGCUCAACCAGAAAGUCUGUAAUCAUUUUAAGGGUA | 0.62 |
| GUUAACGGUCAUAGGCCAUGGAAACUAGGGGCACCAUUUCGCUGCCAGUGAAGAGAUGAACAAAGAAAAUCUGGGCCAGGCAGGCAUCAAAAGAAAUAGUCUUGCGCUCAACCAGAGAGUCUGUAAUCAUUUUAAGGGCA | 1.46 |
| GUUAACGGUCAUAGGCCAUGGAAACUAGGAGCACCAUUUCGCCGCCAGUGAAGAAAUGAACAAAGAAAAUCUGGGCCUGGCAGGCAUCAAAAGGAAUAGUCUUGCGCUCAACCAGAAAGUCUGUAAUCAUUUUAAGGGUA | 0.27 |
